In the supplement of paper PMC3334620:
The full ranking holds about 33,000 sequences; the median of “E-score (-0.5 to 0.5)” is about -0.032, and the highest 2% start at about 0.36. The list shows a part of the results.

Biological target: T1, Sko1 (UniProt Q02100)
T1 sequence: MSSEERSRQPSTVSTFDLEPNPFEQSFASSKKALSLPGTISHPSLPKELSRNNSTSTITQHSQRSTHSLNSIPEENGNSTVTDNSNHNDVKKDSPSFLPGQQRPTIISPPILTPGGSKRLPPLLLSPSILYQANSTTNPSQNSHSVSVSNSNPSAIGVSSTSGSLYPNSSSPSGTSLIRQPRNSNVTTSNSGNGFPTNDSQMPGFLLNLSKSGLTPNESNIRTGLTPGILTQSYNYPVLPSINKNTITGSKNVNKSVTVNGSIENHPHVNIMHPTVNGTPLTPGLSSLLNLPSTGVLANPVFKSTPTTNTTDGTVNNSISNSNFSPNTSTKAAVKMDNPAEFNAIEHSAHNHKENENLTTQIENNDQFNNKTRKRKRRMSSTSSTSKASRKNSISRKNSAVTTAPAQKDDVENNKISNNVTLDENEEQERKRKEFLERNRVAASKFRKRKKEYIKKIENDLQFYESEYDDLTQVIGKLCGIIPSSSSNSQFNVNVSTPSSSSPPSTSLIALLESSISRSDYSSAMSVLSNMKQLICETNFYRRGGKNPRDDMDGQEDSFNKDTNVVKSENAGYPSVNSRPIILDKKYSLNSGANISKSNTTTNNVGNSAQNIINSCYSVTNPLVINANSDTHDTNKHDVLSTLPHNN
Test: PBM E-score (8-mer binding enrichment) (E-score (-0.5 to 0.5)); higher = stronger / more preferred TF binding; most listed sequences are background and not binding sites
Details: protein concentration: 200 nM; construct: GST-full length
Procedure, shortened: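 Masliner-normalised scans of fluorescent anti-GST signal were the basis for scoring. That signal came from GST-tagged yeast transcription factors applied at about 100-200 nM to double-stranded universal all-10-mer Agilent arrays on fresh or once-stripped slides. Each ungapped eight-base word, pooled with its reverse complement, received an E-score from the Universal PBM Analysis Suite.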

Sequence | PBM E-score
AGCGTGGA | -0.0529
GCCAGGGA | -0.0386
ATCACAAA | 0.119
CCGTTAAA | -0.0181
AGTCCTTA | -0.0267
CTCAGAAC | 0.13
CACAGCCG | -0.31
AACATCGA | 0.156
CAAATCGA | 0.0339
ATACGTTC | 0.374
ACTCTATC | -0.012
GGTGCTTA | -0.169
GACGCCGC | 0.0101
ACCCGGCA | -0.367
CAACAAAG | 0.0333
CCGCAATA | 0.0923
GATACGAA | 0.227
ACAGTACG | 0.235
ATGCGCAT | 0.276
ATCGGGCG | -0.151
CGATGAGC | -0.177
AATAGTAC | 0.135
CGTACGAG | 0.242
CGTTTGAA | 0.143
CTATGAAG | 0.0914

Sequence | PBM E-score
AAGGTGGC | -0.149
GCGTGAAC | -0.0276
GCTCTGTA | -0.0735
AGTAAAAA | 0.157
CTACGCTC | -0.0646
ATCTCCTC | -0.209
AGTAGGGA | -0.177
ACGGGGGG | -0.287
ACCACCGT | -0.278
AATGAACC | -0.0854
AATATTCC | 0.0396
CCGAATGA | 0.213
CGGCGCAC | -0.302
AGCCTCAC | -0.151
GCGCCCCC | -0.392
CCGTCGAG | 0.0473
ATTTTGCG | 0.0854
AAATAATT | 0.198
AAGGGTTA | -0.048
AACACACG | 0.266
AGGCTGCC | -0.341
TATGTTCA | 0.141
CATACACC | -0.0872
AACGTTGA | 0.201
TGCACCAA | -0.177

Sequence | PBM E-score
CAAGGGTA | -0.207
CGATTGTA | 0.142
ATTGCCTC | 0.0801
CGGGCGTC | -0.132
CTCGATTA | 0.074
AGCTAAAT | 0.0636
ATATGGCC | -0.0853
GAAAACTA | 0.0282
CGGAGAGC | -0.0419
GGAAACAC | 0.00845
ACGTGGCT | 0.321
AGAGTTGC | -0.118
GCAAGGCA | 0.0267
TTGCTAAA | 0.0364
GTCCGCCA | -0.125
AATGCTTG | 0.0118
GCAGATGC | -0.115
TCGTTGCA | 0.137
GGCCACAC | -0.178
TAACAAAA | 0.204
AAGCCAAT | 0.0557
CACAGGCG | -0.19
ACATTGTA | -0.016
GCCGCAGA | -0.176
CATTTCAG | -0.0277

Sequence | PBM E-score
GCTCGCCA | -0.243
ACTGGTAA | 0.0395
GCTCCCAA | -0.291
AGCAGTTG | -0.27
AAACGTGA | 0.308
ACTACCGC | -0.0886
CAACCTGC | 0.00356
ACCGCGGC | -0.155
CCCTTCGG | -0.0247
AAGGCTCG | -0.306
TGCCTCAA | -0.107
AGACTCCC | -0.303
CACTCCAC | -0.00354
AGACTCCT | -0.227
ATCTAGGC | -0.213
TCACGAAA | 0.298
ACGCTTCG | -0.0272
CGCCGGCC | -0.326
ACTTTCTG | -0.0274
CGACGAAC | 0.0233
CGCTTATA | 0.165
CGTCTTTC | 0.158
AGATGCCC | -0.252
CTGTGTCA | -0.118
AAGCAAAG | -0.19

Sequence | PBM E-score
GCAGTAGA | -0.0999
CGCGATCA | 0.0671
CCTATTAC | 0.216
ACGTTTCT | 0.285
GCGAATGA | 0.171
AATCCAAC | -0.0343
CTCTCCAC | -0.171
ACGACCCT | -0.194
CACCTCTG | -0.264
AGGTGGTA | -0.157
ATTTGGGC | -0.0942
GCCGAGGC | -0.116
CGTAGTTC | 0.19
GGTTAAAC | 0.0945
CGAGCACG | 0.0337
AGCGAGAT | -0.0977
ATCGCTTC | 0.0445
CTTAAGGC | -0.188
GCAAACCA | -0.0509
ACCCCGGT | -0.386
CCTACAGA | -0.0623
ATCCTAGG | -0.338
AATGGGGT | -0.169
CTGGAGCC | -0.244
CAGATCTC | -0.196

Sequence | PBM E-score
AGGCTCCC | -0.299
ATTTAGGC | 0.0936
AACCAAAC | 0.0145
AGCACACC | -0.192
ACCAAAAA | 0.159
GAGTGAAA | 0.0485
GACGTCTC | 0.384
ATCGTGCC | 0.00785
TCCAACCA | -0.1
ATCTAGGG | -0.0976
CTGAGCAA | 0.0232
CCTTGCAC | 0.0446
GAGCGTAC | -0.0178
AGCGATTA | 0.0596
ATTGCCAC | -0.11
GAACGTTC | -0.0592
AGCCGAAG | -0.0411
ATCCATGA | -0.129
CAGGACCA | -0.185
CCGTGGCC | -0.207
CTGAAAAG | -0.0929
ATTATCCC | 0.175
ATGCGCAA | 0.165
ACCAGCTA | -0.0449
ACTGCCCA | -0.0818

Sequence | PBM E-score
CGTGAAAG | 0.267
CCATAGGG | -0.278
CTAAGTGC | -0.0892
TGCAAGCA | -0.0894
CGTCATTC | 0.482
GTCTGCGA | -0.0944
AGATGATC | 0.0317
AGTCGTCG | -0.148
CATGCCTC | 0.0373
CATGCTCA | -0.0974
AGCCTTCG | -0.283
CTAGCGGC | -0.388
GTAGCTAA | -0.0537
CAGGCAGA | -0.0717
AGAGGGTG | -0.215
GCCGCGTA | 0.145
AGTAGGCC | -0.203
AACTGGTC | -0.112
CGAGGATA | -0.103
GAAGCGAC | -0.077
AAGCCTAT | 0.00304
ATCGTGGA | -0.0211
GCCTCAAA | -0.223
AACCAAGG | -0.015
AAAGGCGT | -0.11

Sequence | PBM E-score
GCTAAACA | 0.0426
CTATGCCA | -0.215
CTGCAGGC | -0.174
CAACCACG | 0.232
GGTTATAA | 0.0904
CCTTACCC | -0.149
CATACGAG | -0.00346
AATACCCT | -0.118
CTTCTATA | 0.0482
GCGCAGGA | -0.131
AAAGCTTG | -0.00387
GGGTTCTA | -0.289
AGTGAGGA | -0.191
AAAAGCCC | -0.199
AAGGTTGT | 0.00278
CCCGCACA | -0.0587
TTAACTAA | 0.239
GCAAAGTA | 0.035
TCCCCACA | 0.0503
AACCTGGG | -0.29
AAATTCTA | 0.0784
ACGGATCA | 0.0945
CCGGTATA | -0.131
GCTTTGCC | -0.244
AGCGGCGA | -0.244

Sequence | PBM E-score
AGTCAATA | 0.0536
GCTTCCAA | 0.00837
CCCACCCG | -0.0998
AACTTCGT | 0.129
GTTTTTGA | 0.194
ATGTACTC | -0.0812
ACGGCATC | 0.0446
ACCCAATG | -0.0468
GTTGTGCA | -0.00784
AAGACGGT | -0.154
CCGGTGGC | -0.342
GCCTTCTA | -0.156
AGCCTCAA | -0.238
ACCTTATC | -0.00654
ACACCTGA | 0.0591
ACAGGCAG | -0.13
AAGGAATC | -0.278
GTTAGCGA | 0.21
ATGCTTCC | -0.0957
